Among all 150,000 compounds or so, about 540 (0.36%) showed an effect of 50% or more. This is one part of the list.

The % Inhibition is the change of the read-out against control, counted positive when it falls.

In the test the test system is Plasmodium falciparum. The experiment in a line: Primary screen in NF54 nanoGlo assay, in single point, at 2uM, 72h; a lower Z score goes with more inhibition. The test is classed as functional, Erythrocyte. To be noted: timepoint 72 hour.
As to `O=C1C[C@H](N2CCN(Cc3ccc4c(c3)OCO4)CC2)C(=O)N1C1CC1`, the “% Inhibition” value worked out at 3% and the Z score is recorded as -0.43.
The corresponding values for `Cc1nnnn1-c1ccc(C(=O)N[C@H]2CCCOC2)c(F)c1` are 3% and -0.56.
In the case of `CC[C@H](NC(=O)c1[nH]nnc1-c1ccc(F)cc1)c1cccs1`, the “% Inhibition” value is given as -4% and the Z score was found to be 0.69.
With `Cc1noc([C@H]2CCCN(C(=O)c3ncccc3OCC(F)(F)F)C2)n1`, the “% Inhibition” value is -6% and the Z score is 0.97.
With `CCS(=O)(=O)NC[C@H](C)NCc1cccc(CO)c1`, the “% Inhibition” value was -11% and the Z score was 1.34.
For the compound `CN1CCN(Cc2ccc3c4c(cccc24)C(=O)OC3)C[C@H]1c1ccccc1`, the “% Inhibition” value is reported as -7% and the Z score turned out to be 1.25.
For `O=C(NC[C@@H](c1ccco1)N1CCCC1)c1ccc(Br)o1`, the “% Inhibition” value is given as -1% and the Z score was determined as 0.17.
The corresponding values for `C[C@@H](Cc1nc(-c2cc(Cl)sc2Cl)cs1)n1cc(Cl)cn1` are -8% and 0.87.
Take `Cc1cc(C)cc(CCC(=O)NCc2nccc(N)n2)c1`: the “% Inhibition” value was -6% and the Z score was determined as 0.7.
The corresponding values for `CCC1CN(C(=O)NC2CCCCC2CC)CC(C)O1` (stereo not drawn) are -10% and 1.54.
On to `CC1(C)CO[C@H](c2cccc(Cl)c2)CN1C(=O)CN1CCC(=O)NC1=O`, for which the “% Inhibition” value is -9% and the Z score turned out to be 1.53.
As for `Cc1ccsc1CN(Cc1ccc(F)cc1)C(=O)CN(C[C@H]1CCCO1)C(=O)Nc1ccc(Cl)cc1`, the “% Inhibition” value is listed as -10% and the Z score is recorded as 1.26.
Consider `CC1CCCN(C(C)CNC(=O)CCNC(=O)C2CC2C)C1` (stereo not drawn), for which the “% Inhibition” value is -5% and the Z score was 0.79.
`CCN1[C@H](c2ccc(Br)cc2)CCS1(=O)=O`: the “% Inhibition” value is -7% and the Z score is 1.32.
Turning to `COCCO[C@H]1CN(C2CCN(C(=O)c3cc(C)nn3C)CC2)C12CCCCC2`, the “% Inhibition” value is on record as -10% and the Z score turned out to be 1.85.
In the same order, the values of `Cc1ccc(-c2nc(C)c(C(=O)NC[C@H](C)N3CCc4ccccc43)s2)o1` are -13% and 2.53.
With `COc1cc(NC(=O)COc2ccccc2F)ccc1N1CCCCC1=O`, the “% Inhibition” value was -16% and the Z score is recorded as 2.52.
In the case of `Cc1ccc(Cc2nc(CCCNC(=O)OC(C)(C)C)no2)cn1`, the “% Inhibition” value is -15% and the Z score was found to be 2.59.
Take `Cc1c(S(=O)(=O)N2CCC(C)CC2)c(C)n(C)c1C(=O)N1CCOCC1`: the “% Inhibition” value is -16% and the Z score was found to be 2.15.
Turning to `O[C@]1(c2ccc(-c3ccccc3)cc2)C[N+]2=C(CCCCC2)N1c1ccc2c(c1)OCO2`, the “% Inhibition” value is -2% and the Z score stood at 0.19.
On to `Cc1nccc(-c2ccc(NC(=O)Cc3cccc4ccccc34)cc2)n1`, for which the “% Inhibition” value was 2% and the Z score is on record as -0.22.
Turning to `O=C(NCc1ccccc1)c1cc(-c2cccc(F)c2)ns1`, the “% Inhibition” value is -3% and the Z score worked out at 0.36.
Take `C[C@H](NC(=O)Nc1cccc2c1OC(C)(C)C2)c1nccs1`: the “% Inhibition” value was -8% and the Z score was determined as 1.03.
For `Cc1cc(Br)c(N)cc1F`, the “% Inhibition” value is -15% and the Z score is recorded as 1.72.
For the compound `CCN1Cc2nc(OC)c(CNC(=O)c3cc(C)n[nH]3)cc2C1=O`, the “% Inhibition” value stood at 6% and the Z score is reported as -0.76.
The corresponding values for `CC(=O)N[C@H]1CN(C(=O)CCc2c(C)n[nH]c2C)C[C@@H]1c1ccc(C)cc1` are -6% and 1.09.
The corresponding values for `CN(c1nc2c(cnn2C)c(=O)[nH]1)C1CCCC1c1ccc(C(F)(F)F)cc1` (stereo not drawn) are 36% and -1.07.
On to `O=C(NC1CCC1)c1ccc(S(=O)(=O)NCc2ccncc2)cc1`, for which the “% Inhibition” value is -9% and the Z score came to 1.37.
The corresponding values for `CCCC[C@H]1C(=O)N(C)CCN1C(=O)c1cnn2ccccc12` are -8% and 0.7.
In the same order, the values of `C[C@@H]([C@H](O)c1ccc(O)cc1)n1ccnc1-c1coc(-c2ccccc2)n1` are -1% and 0.11.
For `O=C(Nc1ccc(Cl)c(N2CCCS2(=O)=O)c1)c1ccc(Br)o1`, the “% Inhibition” value is recorded as 11% and the Z score is recorded as -1.36.
`O=C(N[C@@]12COC[C@@H]1C2)c1ccsc1C(F)F`: the “% Inhibition” value is -3% and the Z score was 0.34.
The corresponding values for `c1cc(-c2nccn2CCN2CCCCC2)cc(-n2cccn2)c1` are -12% and 2.38.
The corresponding values for `CCc1nc2c(c(OC3CCN(C(=O)NC4CCCC4)CC3)n1)CCOCC2` are -1% and 0.07.
In the same order, the values of `COC(=O)c1cc(-c2cccnc2OC)c[nH]1` are 11% and -1.45.
As for `Cn1c(Cn2cnc3ccccc32)nnc1-c1ccc(Cl)cc1`, the “% Inhibition” value is -9% and the Z score was determined as 0.74.
As to `O=C1Nc2ccccc2CC[C@@H]1n1nc(-c2ccco2)ccc1=O`, the “% Inhibition” value came out at 30% and the Z score is recorded as -3.38.
In the same order, the values of `Cc1cc(C(N)=O)cc(S(=O)(=O)N2CCc3ccc(C(=O)O)cc3CC2)c1` are -5% and 0.69.
Consider `O=C(NCCc1cccs1)C1CCN(C(=O)c2cnsn2)CC1`, for which the “% Inhibition” value was determined as 8% and the Z score is listed as -1.05.
`Cc1cccc([C@@H](O)CN2CCC(N3CCCS3(=O)=O)CC2)c1`: the “% Inhibition” value is listed as -8% and the Z score stood at 0.91.
For `COC1CCN(c2nc(C3CCCC3)nc3c2CCNCC3)CC1`, the “% Inhibition” value is given as -13% and the Z score is reported as 1.43.
Turning to `COc1ccc(NC(=O)CCN2CCC[C@H]2c2ccncc2)cc1`, the “% Inhibition” value was determined as 4% and the Z score was -0.41.
`O=S(=O)(NCc1cncc(-c2cccs2)c1)c1cccnc1`: the “% Inhibition” value is -1% and the Z score was determined as 0.12.
Take `Cc1nsc(N[C@@H](C)C(=O)NC(C)C)n1`: the “% Inhibition” value is -5% and the Z score is 1.02.
With `CCc1nnc(N2CC(c3n[nH]c(C)n3)C2)nc1CC`, the “% Inhibition” value is -10% and the Z score was 1.58.
The corresponding values for `Cc1cc(C)nc(O[C@H]2CCCN(C(=O)c3scnc3C)C2)n1` are -7% and 1.05.
Turning to `COc1ccc(CNC(=O)N2C3CCC2CC(S(=O)(=O)c2ccccc2)C3)cc1OC` (stereo not drawn), the “% Inhibition” value is -10% and the Z score was 1.25.
Regarding `O=C(Nc1ccc(N2CCCC2)c2ncccc12)c1cncs1`, the “% Inhibition” value is recorded as -11% and the Z score was 2.13.
For the compound `Cc1nc(-c2cc(S(=O)(=O)NCc3ccc(C(C)C)cc3)c(C)s2)cs1`, the “% Inhibition” value is listed as 16% and the Z score is reported as -1.85.
Take `CCc1nnc(CN(C)CC(=O)N2c3ccccc3C[C@@H]2C)o1`: the “% Inhibition” value worked out at 8% and the Z score was -1.11.
For `CC1(C)C(NCC2CC(O)CN2Cc2ccccc2)C2CCCOC21` (stereo not drawn), the “% Inhibition” value came to 1% and the Z score is -0.15.
For the compound `Cc1cnn(C2CN(CC(=O)NCc3ccc4c(c3)OCO4)C2)c1`, the “% Inhibition” value stood at 15% and the Z score was -1.96.
Regarding `COc1ccccc1C(=O)Nc1ccc2c(c1)nc(CN1CCCCCC1)n2C`, the “% Inhibition” value is recorded as -5% and the Z score was 0.84.
Turning to `Cc1nc(CCN2C(=O)CC3(CCC3)C2=O)cs1`, the “% Inhibition” value is on record as -8% and the Z score was determined as 1.31.

For the origin of these results see ChEMBL document CHEMBL4888484, “Replenishing the malaria drug discovery pipeline: Screening and hit evaluation of the MMV Hit Generation Library 1 (HGL1) against asexual blood stage Plasmodium falciparum ,using a nano luciferase reporter read-out” (2022).
